From PubChem BioAssay AID1347043 (National Center for Advancing Translational Sciences (NCATS), 2019)
Hit rate of the full screen: of about 76,000 compounds, about 1,900 (2.5%) were called active. Inconclusive results, whose numbers are uncertain, are shown with a selection of clear calls. Calls follow the shape of the dose curve; as a rule, active = well fitted inhibition curve with a large enough effect; inconclusive = small, poorly fitted or top-dose-only effect; inactive = flat fitted curve, though single readings scatter. Potencies beside an inconclusive call are fits to weak or partial responses and may not hold up.

Target: Luciferin 4-monooxygenase (Photinus pyralis) (UniProt P08659)
Assay: Firefly luciferase inhibition profiling of diverse chemical library using quantitative high-throughput screening; also: nearly all actives have a fitted effect of over 65% in size
Conditions: purified P. pyralis luciferase, luminescence, biochemical; activity change, negative = inhibition: at 115 µM (top of the series) unless noted
In short: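 Luminescence read by CCD imaging after purified firefly luciferase (10nM final) was added to substrate buffer holding 10uM D-luciferin and 10uM ATP, pH 7.5, pre-dosed with compound.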
% is scaled to controls: 0 for no effect and ±100 for the full control effect; potency is read from the fitted curve at half-maximal effect; tags tell the direction and shape of the fitted curve.

Sequence of UniProt P08659 (P08659 whole entry, looked up): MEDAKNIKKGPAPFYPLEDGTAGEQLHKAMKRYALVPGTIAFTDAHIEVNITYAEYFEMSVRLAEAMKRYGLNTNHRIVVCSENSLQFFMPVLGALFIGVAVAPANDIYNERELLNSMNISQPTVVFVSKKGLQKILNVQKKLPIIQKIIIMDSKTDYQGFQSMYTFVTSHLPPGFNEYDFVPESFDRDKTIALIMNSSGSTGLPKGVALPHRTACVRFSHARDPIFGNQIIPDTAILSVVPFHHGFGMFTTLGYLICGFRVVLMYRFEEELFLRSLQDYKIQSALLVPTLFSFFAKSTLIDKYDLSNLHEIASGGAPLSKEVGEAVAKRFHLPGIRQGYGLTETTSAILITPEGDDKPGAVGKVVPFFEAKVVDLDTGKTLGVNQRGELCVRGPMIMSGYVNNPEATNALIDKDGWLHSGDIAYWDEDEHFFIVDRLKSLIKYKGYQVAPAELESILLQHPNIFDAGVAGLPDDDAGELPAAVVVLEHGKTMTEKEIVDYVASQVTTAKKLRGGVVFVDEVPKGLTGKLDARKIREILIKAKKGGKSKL

SMILES	Potency	activity change, negative = inhibition
CCCN1CCN(C(=O)c2ccc(-c3ccc(N4CCCCC4)nc3)cc2)CC1	inconclusive: 44.7 µM [inhibitor, partial curve]	–
Cc1cc2ccccc2nc1-c1cccc(O)c1	–	inactive: -18.6%
COc1ccc(C(=O)NCCC2CCN(C(=O)Nc3cc(F)ccc3F)CC2)cc1	active: 25.1 µM	–
O=C(Cc1ccsc1)Nc1ccc2c(c1)CCC(=O)N2	inconclusive: 50.1 µM [inhibitor, partial curve]	–
Clc1ccccc1C1(c2ccnc(NCCc3ccccn3)n2)CCNCC1	–	inactive: -2.52%
COC1CCN(CC2CCCCCN2C(=O)Nc2ccc3c(c2)OCCO3)CC1 (stereo not drawn)	active: 17.8 µM	–
COc1ccc(Cl)cc1C(=O)N1CCc2nc3cc(-c4ccccc4)[nH]n3c(=O)c2C1	inconclusive: 11.2 µM [inhibitor, full curve]	–
Cc1oc(C(O)c2ccccc2F)nc1C(=O)Nc1ccccc1 (stereo not drawn)	inconclusive: 70.8 µM [inhibitor, partial curve]	–
CCN(CC)C(=O)CCC1CCN(c2cc(NC3CC3)ncn2)CC1	–	inactive: -23.2%
O=C(NCC1CCOCC1)c1cnc2n[nH]c(-c3ccccc3)c2n1	–	inactive: -4.45% [at 172 µM]
CC(C)c1ccc(CN2C[C@@H]3[C@H](C2)N(Cc2ccccc2)C(=O)C(C)(C)[S+]3(=O)[O-])cc1	–	inactive: -5.02%
CCOc1ccc(-c2cc3c(=O)n(CCNC(=O)Cc4cccc(F)c4)ccn3n2)cc1	inconclusive: 3.98 µM [inhibitor, full curve]	–
Cc1cc2c(N3CCC(NCc4noc(C5CCC5)n4)CC3)ncnc2s1	–	inactive: 4.19%
Cc1cccc(N(C)C(=O)Cn2cccc2-c2nc(-c3ccccc3)no2)c1	inconclusive: 39.8 µM [inhibitor, partial curve]	–
Cc1cc(Cl)ccc1NC(=O)NCC1CCOCC1	inconclusive: 50.1 µM [inhibitor, partial curve]	–
COc1ccc(-c2cc3nc4c(c(=O)n3[nH]2)CCN(C(=O)c2ccccc2C)C4)cc1	inconclusive: 50.1 µM [inhibitor, partial curve]	–
NC(=O)Cn1ccc2cc(OCC3CCN(c4cnccn4)CC3)cnc21	inconclusive: 89.1 µM [inhibitor, partial curve, poor fit]	–
CN1c2cc(C(=O)Nc3ccc(Cl)c(F)c3)ccc2C(=O)N2CCCCC21 (stereo not drawn)	inconclusive: 39.8 µM [inhibitor, partial curve]	–
CCOC(=O)c1ccc(NC(=O)Cn2c(N3CCN(c4ccccc4)CC3)nc(C)cc2=O)cc1	–	inactive: -0.701%
Cc1cccc2c1nc1n2[C@@H](CNC(=O)c2ccc3c(c2)OCO3)COC1	inconclusive: 126 µM [inhibitor, single point]	–
O=C(c1ccc(Cl)cc1)N1CCN(c2cc(-c3ccc(Cl)cc3)[nH]n2)CC1	–	inactive: 1.08%
Cc1ccccc1C(=O)N1CCc2nc(C3CC3)nc(-c3ccc(O)cc3)c2CC1	–	inactive: -3.94%
NC(=O)C1CCN([C@H]2[C@@H]3OC[C@@H](O3)[C@@H](NC(=O)Nc3cccc(C(F)(F)F)c3)[C@@H]2O)CC1	inconclusive: 100 µM [inhibitor, partial curve, poor fit]	–

SMILES	Potency	activity change, negative = inhibition
NC(=O)NCC(=O)N1CCCC(c2cc(N3CCOCC3)ncn2)C1 (stereo not drawn)	–	inactive: 0.999%
O=C(Nc1ccc([C@@H](O)[C@H]2COCC(=O)N2Cc2ccccc2F)cc1)c1ccc2c(c1)OCO2	inconclusive: 44.7 µM [inhibitor, partial curve]	–
CC(=O)c1ccc(-c2nc(C3CCOC3)no2)s1 (stereo not drawn)	inconclusive: 79.4 µM [inhibitor, single point]	–
COCCN1CCCCCC(O)c2cc(C(=O)Nc3cc(C)ccc3OC)ccc21 (stereo not drawn)	inconclusive: 35.5 µM [inhibitor, partial curve]	–
c1ccc2cc(-c3nc(C4CCOC4)no3)ncc2c1 (stereo not drawn)	active: 2.51 µM	–
Cc1ccc(C(=O)N2CCC(N3C[C@H](O)C[C@H]3C(=O)NC3CCCCC3)CC2)cn1	–	inactive: -7.83%
O=C(NCC1CCN(c2cc(-c3ccc(F)cc3)[nH]n2)CC1)c1cc(C2CC2)[nH]n1	inconclusive: 44.7 µM [inhibitor, partial curve, poor fit]	–
CC(=O)NCCc1ncc(C)n1C1CCC1	–	inactive: -6.21%
CN(C(=O)c1ccc2nc(-c3ccc(F)cc3)cn2c1)C1CCOCC1	active: 31.6 µM	–
O=C(c1ccc(F)cc1)N1CCC[C@H]1c1nc(-c2ccccc2Cl)no1	inconclusive: 44.7 µM [inhibitor, partial curve]	–
CC(=O)N1CCC(c2nn(-c3ccc(Cl)cc3)c(=O)[nH]2)CC1	–	inactive: -9.54% [at 172 µM]
Fc1ccccc1-c1ccc(CNCc2ccco2)o1	inconclusive: 39.8 µM [inhibitor, partial curve]	–
COc1ccc(NC(=O)Nc2ccc(C)n(CC(=O)Nc3ccc(C)c(C)c3)c2=O)cc1	active: 0.708 µM	–
CN(C)C(=O)CN1C(=O)CO[C@H](c2ccc(NC(=O)c3ccc(C(F)(F)F)cc3)cc2)[C@H]1CO	inconclusive: 50.1 µM [inhibitor, partial curve]	–
O=C(c1[nH]nc2c1CCc1ccccc1-2)N1CCC(c2noc(-c3ccccn3)n2)C1 (stereo not drawn)	inconclusive: 31.6 µM [inhibitor, partial curve, poor fit]	–
Clc1ccc(-c2ccc(CN3CC[C@H]4CC[C@@H](C3)N4)o2)cc1	inconclusive: 79.4 µM [inhibitor, single point]	–
O=C(Nc1ccccc1)c1ccc2c(c1)OCCN(c1ccccc1)C2	inconclusive: 31.6 µM [inhibitor, full curve]	–
O=C(C1CCCCC1)N1CC[C@H](c2nnc(-c3ccncc3)o2)C1	–	inactive: -5.65% [at 172 µM]
O=C(NC1CCN(c2cc(-c3ccccc3)[nH]n2)CC1)c1cc2ccccc2[nH]1	inconclusive: 7.94 µM [inhibitor, full curve]	–
COc1ccc(-c2cccc(CCOc3cnc4c(ccn4CC(=O)O)c3)c2)c(F)c1	inconclusive: 31.6 µM [inhibitor, full curve]	–
N#Cc1cccc(CN2CCCCCNC(=O)[C@@H]3CCC[C@@H]32)c1	–	inactive: -13.3%
O[C@@H]1C[C@@H](c2nc(-c3ccccc3)no2)N(Cc2ncc[nH]2)C1	active: 22.4 µM	–
COc1ccc(C2Cn3cnc(C(=O)N4CCC(C(=O)Nc5ccc(C)cc5)CC4)c3CO2)cc1 (stereo not drawn)	inconclusive: 56.2 µM [inhibitor, partial curve, poor fit]	–

SMILES	Potency	activity change, negative = inhibition
c1ccc(-c2cnc(Nc3ccncc3)c3c2CCO3)cc1	active: 28.2 µM	–
Cc1ccc(OCC(=O)c2ccc3c(c2)N(C(C)C(=O)NCC2CC2)C(=O)CO3)cc1C (stereo not drawn)	inconclusive: 50.1 µM [inhibitor, partial curve]	–
CC1=C(C(=O)Nc2ccccc2)C(c2cccc(C)c2)N2C(CC(=O)NC3CC3)=CSC2=N1 (stereo not drawn)	–	inactive: -7.09%
CC(C)c1nc2c(c(-c3ccc(O)cc3)n1)CN(C(=O)c1cccc(Cl)c1)CC2	–	inactive: -8.5%
Cc1ccc(NC(=O)N2CCc3c(c4ccccc4n3C)C2)cc1C	inconclusive: 39.8 µM [inhibitor, partial curve]	–
COc1ccccc1C(=O)NC[C@@H]1CC[C@H]2C[C@@H]1C2(C)C	inconclusive: 100 µM [inhibitor, partial curve, poor fit]	–
COc1ccc(CN2CCNc3cc(-c4ccccc4)ncc3C2)cc1	inconclusive: 50.1 µM [inhibitor, partial curve]	–
COc1ccc(C(=O)NC[C@H]2Cn3c(-c4ccc(Cl)cc4)cnc3CO2)cc1	inconclusive: 112 µM [inhibitor, single point]	–
Cc1nc(C2CC(O)C2)cc(N2CCN(C(=O)c3cccs3)CC2)n1 (stereo not drawn)	–	inactive: 0%
Cc1ccc(-c2noc([C@@H]3C[C@H](NS(=O)(=O)c4ccccc4)CN3C)n2)cc1	inconclusive: 70.8 µM [inhibitor, full curve, poor fit]	–
CN1c2cc(C(=O)Nc3cccc(OC(F)(F)F)c3)ccc2C(=O)N2CCCCC21 (stereo not drawn)	inconclusive: 44.7 µM [inhibitor, partial curve, poor fit]	–
CC(C)NC(=O)C[C@@H]1O[C@H](CNC(=O)Nc2ccccc2)[C@@H](O)[C@H]1O	inconclusive: 79.4 µM [inhibitor, partial curve]	–
CCOC(=O)C1(Cc2ccccc2)CCCN(C(=O)c2ccccc2SC)C1 (stereo not drawn)	inconclusive: 44.7 µM [inhibitor, partial curve]	–
O=C(Nc1ccccc1F)N1CCC(N2C(=O)C3(CCCCC3)C2c2ccncc2)CC1 (stereo not drawn)	inconclusive: 44.7 µM [inhibitor, partial curve]	–
CCCc1cc(C(=O)N2CCc3c(nc(-c4cccnc4)[nH]c3=O)C2)n[nH]1	inconclusive: 79.4 µM [inhibitor, partial curve, poor fit]	–
CCOc1ccc(-c2cc3c(=O)n(CCNC(=O)c4ccccc4)ccn3n2)cc1	inconclusive: 0.631 µM [inhibitor, full curve]	–
COc1ccc(-c2cn3c(n2)CO[C@@H](CNC2CCC2)C3)cc1	active: 56.2 µM	–
c1ccc(Nc2cc3c(cn2)CN(Cc2ncc[nH]2)CCN3)cc1	active: 17.8 µM	–
COc1cccc(-c2cn3c(n2)N(C(=O)C2CCC2)CCC3)c1	inconclusive: 44.7 µM [inhibitor, partial curve]	–
C[C@H]1CN(C(=O)C2CCCC2)C[C@@H]1c1nc(-c2ccccc2)no1	inconclusive: 50.1 µM [inhibitor, partial curve, poor fit]	–
O=C(c1ccccc1Cl)N1CCC2(CC1)C(=O)NCN2Cc1ccc(Cl)cc1	–	inactive: 6.46%
Cn1c2c(c3ccccc31)CN(C(=O)Nc1ccccc1F)CC2	inconclusive: 44.7 µM [inhibitor, partial curve]	–
